# Laboratory results reported in PubChem BioAssay (EPA / NIEHS).
# “And” between values parts separate entries of the source, which are not always exact repeats. Equal entries are not always repeated. The inconclusive results got no clear call from the source; some entries with a clear call stand among them for comparison. For some of these results: Where the call is inconclusive, the potency comes from a doubtful curve fit. Some compounds were tested as several samples or in several runs, with calls that do not always agree. The source made the active and inactive calls. The calls were made as follows: active = hit-call score of the fitted dose curve at least 0.9, where 1 is the maximum; inconclusive = response in the unintended direction; inactive = score below 0.9.
# Tests used:
# [1] = target: Estrogen receptor beta (Homo sapiens) (UniProt Q92731); assay: ATG_hERb_XSP1: Attagene TRANS-FACTORIAL Multi-Species (XSP1) HepG2 Assay for human Estrogen Receptor (ESR2) (AID 2283788)
# Outline: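 Read-out: reporter mRNA induction by RT-PCR, HpaI digestion and capillary electrophoresis fluorescence, fitted in positive direction relative to DMSO baseline. Human liver HepG2 cells expressing ERβ-Gal4 fusion, dosed 24 h, medium containing 3 nM 6-alpha-fluorotestosterone.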
# [2] = target: GAL4 Transcription Factor (Internal Marker), GAL4 (gene 855828) (UniProt P04386); assay: ATG_GAL4_XSP1: Attagene TRANS-FACTORIAL Multi-Species (XSP1) HepG2 Assay for GAL4 Transcription Factor (Internal Marker) (AID 2283789)
# Outline: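 HepG2 cells transiently transfected with multiplexed GAL4-UAS reporter units were exposed for 24 h with 3 nM 6-alpha-fluorotestosterone present. Reporter mRNA was quantified by RT-PCR, FAM labelling, HpaI digestion and capillary electrophoresis; background-control readout, gain-of-signal versus DMSO.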
# [3] = ATG_M_06_XSP1: Attagene TRANS-FACTORIAL Multi-Species (XSP1) HepG2 Assay for M06 Transcription Factor (Internal Marker) (AID 2283790)
# Outline: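 Transfected HepG2 multi-reporter system treated 24 h in the presence of 3 nM 6-alpha-fluorotestosterone. The M06 internal marker transcript was quantified by RT-PCR with capillary electrophoresis as a background control, and gain of signal was scored versus DMSO.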
# [4] = ATG_M_32_XSP1: Attagene TRANS-FACTORIAL Multi-Species (XSP1) HepG2 Assay for M32 Transcription Factor (Internal Marker) (AID 2283799)
# Outline: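 HepG2 cells transiently transfected with multi-species TRANS reporter units, dosed 24 h with 3 nM 6-alpha-fluorotestosterone present. Internal-marker reporter mRNA quantified by RT-PCR and capillary electrophoresis; positive-direction fit versus DMSO.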
# [5] = test system: zebrafish Peroxisome Proliferator-activated Receptor gamma (PPARg), gene 557037; assay: ATG_zfPPARg_XSP1: Attagene TRANS-FACTORIAL Multi-Species (XSP1) HepG2 Assay for zebrafish Peroxisome Proliferator-activated Receptor gamma (PPARg) (AID 2283801)
# Outline: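 HepG2 cells transiently transfected with GAL4-UAS reporter units including a zebrafish PPARg–GAL4 chimera, dosed 24 h with 3 nM 6-alpha-fluorotestosterone present. Reporter mRNA quantified by RT-PCR, FAM labelling, HpaI digestion and capillary electrophoresis; induction versus DMSO.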
# [6] = target: Nuclear receptor subfamily 1 group I member 2 (Mus musculus) (UniProt O54915); assay: ATG_mPXR_XSP1: Attagene TRANS-FACTORIAL Multi-Species (XSP1) HepG2 Assay for mouse Pregnane X Receptor (PXR) (AID 2283803)
# Outline: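 Transiently transfected HepG2 cells expressing a receptor-Gal4 chimera drive a GAL4-UAS reporter; 3 nM 6-alpha-fluorotestosterone included. Reporter mRNA read 24 h post-dose by RT-PCR and capillary electrophoresis; gain of signal relative to DMSO.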
# [7] = target: frog Thyroid hormone Receptor alpha (TRa), thra-a (gene 397942) (UniProt P15204); assay: ATG_frTRa_XSP1: Attagene TRANS-FACTORIAL Multi-Species (XSP1) HepG2 Assay for frog Thyroid hormone Receptor alpha (TRa) (AID 2283804)
# Outline: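 HepG2 cells transiently transfected with frog TRa-GAL4 chimeric reporter units, dosed 24 hr with 3 nM 6-alpha-fluorotestosterone present; reporter mRNA quantified by RT-PCR, fluorescent labelling and capillary electrophoresis, gain of signal versus DMSO.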
# [8] = target: zebrafish Thyroid Hormone Receptor alpha (TRa), thraa (gene 30670) (UniProt Q98867); assay: ATG_zfTRa_XSP1: Attagene TRANS-FACTORIAL Multi-Species (XSP1) HepG2 Assay for zebrafish Thyroid Hormone Receptor alpha (TRa) (AID 2283807)
# Outline: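 HepG2 cells transiently transfected with GAL4-UAS reporter units including a zebrafish TRa–Gal4 chimera, dosed 24 h with 3 nM 6-alpha-fluorotestosterone present. Reporter mRNA quantified by RT-PCR and capillary electrophoresis; gain versus DMSO.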
# [9] = target: human Thyroid hormone Receptor beta (TRb), THRB (gene 7068) (UniProt P10828); assay: ATG_hTRb_XSP1: Attagene TRANS-FACTORIAL Multi-Species (XSP1) HepG2 Assay for human Thyroid hormone Receptor beta (TRb) (AID 2283808)
# Outline: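 HepG2 cells transiently transfected with reporter units driving GAL4-UAS reporters for chimeric NR-Gal4 proteins; 24 h chemical exposure with 3 nM 6-alpha-fluorotestosterone present. Reporter mRNA quantified by RT-PCR and capillary electrophoresis, gain of signal versus DMSO.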
# [10] = ATG_XTT_Cytotoxicity_XSP1: Cytotoxicity Assessment in the Attagene TRANS-FACTORIAL Multi-Species (XSP1) HepG2 Assay (AID 2283810)
# Outline: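 XTT viability readout taken at 24 hours post-dosing in HepG2 liver cells co-treated with 3 nM 6-alpha-fluorotestosterone. Signal loss relative to DMSO controls reflects cytotoxicity.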
# [11] = target: GAL4 Transcription Factor (Internal Marker), GAL4 (gene 855828) (UniProt P04386); assay: ATG_GAL4_XSP2: Attagene TRANS-FACTORIAL Multi-Species (XSP2) HepG2 Assay for GAL4 Transcription Factor (Internal Marker) (AID 2283814);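 also: GAL4 reporter mRNA background control in MRTU transfected cells not a receptor target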
# Outline: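 HepG2 cells transiently transfected with GAL4-UAS reporter units, stimulated with 3 nM 6-alpha-fluorotestosterone plus 1.5 nM norgestrel, dosed 24 h. Reporter mRNA by RT-PCR/capillary electrophoresis; gain-of-signal fit versus DMSO, background control.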
# [12] = test system: turtle Androgen Receptor (AR), gene 101947425; assay: ATG_trAR_XSP2: Attagene TRANS-FACTORIAL Multi-Species (XSP2) HepG2 Assay for turtle Androgen Receptor (AR) (AID 2283815);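 as to AC50: reporter mRNA from a Gal4 chimera of turtle AR measured by RT-PCR; potency for gain of reporter signal meaning activation above DMSO baseline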
# Outline: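 HepG2 cells transiently transfected with GAL4-UAS reporter units for chimeric NR-Gal4 receptors; 24 h dosing in presence of 3 nM 6-alpha-fluorotestosterone and 1.5 nM norgestrel. Reporter mRNA by RT-PCR and capillary electrophoresis, gain of signal versus DMSO.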
# AR (gene 367) = AR (gene 367) (UniProt P10275); assay: ACEA_AR_antagonist_80hr: ACEA Biosciences xCELLigence Real-Time Cell Analysis on Androgen Receptor Antagonism for Proliferation (AID 2283787);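 also: 22Rv1 human prostate cancer cells with growth followed by electrical impedance; hits lower the impedance growth signal relative to DMSO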
# Outline: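 Impedance readout (RT-CES), 80 h post-dose; loss-of-signal vs DMSO baseline. 22Rv1 cells in assay medium. Compounds: 8-pt 1:4 series, max 100 uM final, up to 0.5% DMSO; n = 2.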
# [13] = target: Peroxisome proliferator-activated receptor gamma (Homo sapiens) (UniProt P37231); assay: ATG_hPPARg_XSP1: Attagene TRANS-FACTORIAL Multi-Species (XSP1) HepG2 Assay for human Peroxisome Proliferator-activated Receptor gamma (PPARg) (AID 2283800)
# Outline: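 HepG2 cells transiently transfected with GAL4-UAS reporter units carrying chimeric NR-Gal4 proteins; 3 nM 6-alpha-fluorotestosterone present. After 24 h dosing, reporter mRNA quantified by RT-PCR and capillary electrophoresis; gain of signal relative to DMSO.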
# [14] = target: mouse Peroxisome Proliferator-activated Receptor gamma (PPARg), Pparg (gene 19016) (UniProt P37238); assay: ATG_mPPARg_XSP1: Attagene TRANS-FACTORIAL Multi-Species (XSP1) HepG2 Assay for mouse Peroxisome Proliferator-activated Receptor gamma (PPARg) (AID 2283802)
# Outline: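 HepG2 cells transiently transfected with GAL4-UAS reporter units driven by mouse PPARg–GAL4 chimera; 3 nM 6-alpha-fluorotestosterone present. After 24 h dosing, reporter mRNA quantified by RT-PCR, fluorescent labelling and capillary electrophoresis; gain of signal versus DMSO.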
# [15] = test system: turtle Thyroid Hormone Receptor, alpha (TRa), gene 101949057; assay: ATG_trTRa_XSP1: Attagene TRANS-FACTORIAL Multi-Species (XSP1) HepG2 Assay for turtle Thyroid Hormone Receptor, alpha (TRa) (AID 2283806)
# Outline: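 HepG2 cells transiently transfected with GAL4-UAS reporter units and chimeric receptor-Gal4 constructs, with 3 nM 6-alpha-fluorotestosterone present. Reporter mRNA was quantified 24 h after dosing by RT-PCR, 6-FAM labelling and capillary electrophoresis; gain of signal versus DMSO.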
# [16] = target: Estrogen receptor beta (Homo sapiens) (UniProt Q92731); assay: ATG_hERb_XSP2: Attagene TRANS-FACTORIAL Multi-Species (XSP2) HepG2 Assay for human Estrogen Receptor (ERb) (AID 2283813);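 also: actives raise reporter mRNA above DMSO so AC50 reflects agonist induction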
# Outline: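 HepG2 cells transiently transfected with GAL4-UAS reporter units and chimeric human ERb-Gal4, 24 h exposure. Reporter mRNA quantified by RT-PCR with FAM labelling, HpaI digestion and capillary electrophoresis; gain of signal versus DMSO.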
# [17] = ATG_M_61_XSP1: Attagene TRANS-FACTORIAL Multi-Species (XSP1) HepG2 Assay for M61 Transcription Factor (Internal Marker) (AID 2283797)
# Outline: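 HepG2 cells transiently transfected with multiplexed GAL4-driven reporter units, dosed 24 h with 3 nM 6-alpha-fluorotestosterone present. Reporter mRNA quantified by RT-PCR, 6-FAM labelling, HpaI digestion and capillary electrophoresis; internal-marker background control, gain of signal versus DMSO.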
# Sequence of UniProt Q98867 (Q98867 whole entry, looked up, the tested form may be a part): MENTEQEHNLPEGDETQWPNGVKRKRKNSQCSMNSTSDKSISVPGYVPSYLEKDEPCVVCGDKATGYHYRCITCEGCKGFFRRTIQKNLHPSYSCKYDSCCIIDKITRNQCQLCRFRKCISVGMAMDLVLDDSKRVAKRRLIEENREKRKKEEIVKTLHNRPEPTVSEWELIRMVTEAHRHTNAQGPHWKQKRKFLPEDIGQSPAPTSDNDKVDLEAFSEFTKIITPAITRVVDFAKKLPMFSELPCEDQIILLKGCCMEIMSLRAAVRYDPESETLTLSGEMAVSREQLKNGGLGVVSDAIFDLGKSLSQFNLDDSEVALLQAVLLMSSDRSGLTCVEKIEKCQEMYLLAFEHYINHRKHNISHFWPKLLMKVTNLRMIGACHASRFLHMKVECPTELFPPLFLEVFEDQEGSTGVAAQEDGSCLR
# Sequence of UniProt P10275 (P10275 whole entry, looked up): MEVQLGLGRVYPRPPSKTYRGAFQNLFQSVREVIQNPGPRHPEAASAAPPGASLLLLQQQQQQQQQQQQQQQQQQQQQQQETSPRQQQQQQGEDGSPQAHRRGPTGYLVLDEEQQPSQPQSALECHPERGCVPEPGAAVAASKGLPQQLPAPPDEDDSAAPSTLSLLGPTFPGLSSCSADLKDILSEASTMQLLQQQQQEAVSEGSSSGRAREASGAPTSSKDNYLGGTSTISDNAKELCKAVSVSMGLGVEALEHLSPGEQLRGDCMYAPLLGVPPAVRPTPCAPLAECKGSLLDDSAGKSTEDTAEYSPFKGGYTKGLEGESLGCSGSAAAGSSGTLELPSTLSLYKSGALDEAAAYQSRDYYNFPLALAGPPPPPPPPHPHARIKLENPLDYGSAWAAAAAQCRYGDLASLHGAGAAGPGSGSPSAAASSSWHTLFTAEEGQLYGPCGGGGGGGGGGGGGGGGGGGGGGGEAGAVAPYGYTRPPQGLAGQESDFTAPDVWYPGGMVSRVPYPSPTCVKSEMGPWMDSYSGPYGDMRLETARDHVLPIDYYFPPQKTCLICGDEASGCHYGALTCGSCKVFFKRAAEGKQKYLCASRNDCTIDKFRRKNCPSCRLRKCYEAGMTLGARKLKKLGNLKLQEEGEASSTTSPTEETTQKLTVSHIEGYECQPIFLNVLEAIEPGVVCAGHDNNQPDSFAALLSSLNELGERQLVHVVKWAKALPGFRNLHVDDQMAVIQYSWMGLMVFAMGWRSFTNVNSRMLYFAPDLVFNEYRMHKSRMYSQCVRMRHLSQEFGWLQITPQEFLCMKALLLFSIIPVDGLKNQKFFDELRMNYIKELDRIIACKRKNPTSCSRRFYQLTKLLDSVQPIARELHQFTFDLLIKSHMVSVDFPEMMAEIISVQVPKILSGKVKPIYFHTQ
# Sequence of UniProt P15204 (P15204 whole entry, looked up, the tested form may be a part): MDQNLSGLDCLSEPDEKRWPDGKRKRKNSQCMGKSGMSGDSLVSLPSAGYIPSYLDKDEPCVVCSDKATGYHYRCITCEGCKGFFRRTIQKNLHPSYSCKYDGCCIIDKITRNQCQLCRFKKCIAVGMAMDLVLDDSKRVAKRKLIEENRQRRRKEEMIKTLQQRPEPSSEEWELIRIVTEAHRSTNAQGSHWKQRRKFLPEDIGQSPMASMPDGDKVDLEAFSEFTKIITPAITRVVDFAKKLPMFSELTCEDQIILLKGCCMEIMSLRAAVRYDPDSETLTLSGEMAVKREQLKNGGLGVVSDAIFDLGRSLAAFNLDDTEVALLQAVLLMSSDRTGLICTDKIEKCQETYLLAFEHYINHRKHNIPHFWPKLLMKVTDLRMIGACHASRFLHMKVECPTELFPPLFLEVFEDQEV
# Sequence of UniProt P37238 (P37238 whole entry, looked up, the tested form may be a part): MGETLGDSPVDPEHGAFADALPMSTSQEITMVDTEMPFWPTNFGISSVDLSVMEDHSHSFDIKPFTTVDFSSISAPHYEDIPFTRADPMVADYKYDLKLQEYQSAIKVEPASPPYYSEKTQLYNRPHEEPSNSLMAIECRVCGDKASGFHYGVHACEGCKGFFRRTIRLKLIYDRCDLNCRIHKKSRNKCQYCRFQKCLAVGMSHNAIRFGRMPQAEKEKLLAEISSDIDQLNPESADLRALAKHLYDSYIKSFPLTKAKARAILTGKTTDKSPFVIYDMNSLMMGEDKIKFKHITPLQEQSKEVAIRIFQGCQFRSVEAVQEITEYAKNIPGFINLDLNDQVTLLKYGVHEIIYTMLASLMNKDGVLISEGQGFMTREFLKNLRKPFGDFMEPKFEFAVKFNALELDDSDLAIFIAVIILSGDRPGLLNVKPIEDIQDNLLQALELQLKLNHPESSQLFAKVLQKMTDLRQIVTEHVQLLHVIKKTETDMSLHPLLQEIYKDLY
# Sequence of UniProt P37231 (P37231 whole entry, looked up, the tested form may be a part): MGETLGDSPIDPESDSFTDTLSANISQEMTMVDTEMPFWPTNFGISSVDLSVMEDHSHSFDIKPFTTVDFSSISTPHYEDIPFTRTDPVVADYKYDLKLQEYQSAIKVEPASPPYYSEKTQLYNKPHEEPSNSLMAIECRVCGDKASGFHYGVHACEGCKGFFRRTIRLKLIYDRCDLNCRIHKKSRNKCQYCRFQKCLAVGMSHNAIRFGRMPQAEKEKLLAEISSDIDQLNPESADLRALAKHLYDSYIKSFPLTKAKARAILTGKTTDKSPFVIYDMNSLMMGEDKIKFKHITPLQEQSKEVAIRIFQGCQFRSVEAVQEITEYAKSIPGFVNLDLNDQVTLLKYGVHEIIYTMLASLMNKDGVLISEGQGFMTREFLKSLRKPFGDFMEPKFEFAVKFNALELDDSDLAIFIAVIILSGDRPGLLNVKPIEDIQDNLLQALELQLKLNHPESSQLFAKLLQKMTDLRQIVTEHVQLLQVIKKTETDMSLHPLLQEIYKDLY
# Sequence of UniProt P04386 (P04386 whole entry, looked up, the tested form may be a part): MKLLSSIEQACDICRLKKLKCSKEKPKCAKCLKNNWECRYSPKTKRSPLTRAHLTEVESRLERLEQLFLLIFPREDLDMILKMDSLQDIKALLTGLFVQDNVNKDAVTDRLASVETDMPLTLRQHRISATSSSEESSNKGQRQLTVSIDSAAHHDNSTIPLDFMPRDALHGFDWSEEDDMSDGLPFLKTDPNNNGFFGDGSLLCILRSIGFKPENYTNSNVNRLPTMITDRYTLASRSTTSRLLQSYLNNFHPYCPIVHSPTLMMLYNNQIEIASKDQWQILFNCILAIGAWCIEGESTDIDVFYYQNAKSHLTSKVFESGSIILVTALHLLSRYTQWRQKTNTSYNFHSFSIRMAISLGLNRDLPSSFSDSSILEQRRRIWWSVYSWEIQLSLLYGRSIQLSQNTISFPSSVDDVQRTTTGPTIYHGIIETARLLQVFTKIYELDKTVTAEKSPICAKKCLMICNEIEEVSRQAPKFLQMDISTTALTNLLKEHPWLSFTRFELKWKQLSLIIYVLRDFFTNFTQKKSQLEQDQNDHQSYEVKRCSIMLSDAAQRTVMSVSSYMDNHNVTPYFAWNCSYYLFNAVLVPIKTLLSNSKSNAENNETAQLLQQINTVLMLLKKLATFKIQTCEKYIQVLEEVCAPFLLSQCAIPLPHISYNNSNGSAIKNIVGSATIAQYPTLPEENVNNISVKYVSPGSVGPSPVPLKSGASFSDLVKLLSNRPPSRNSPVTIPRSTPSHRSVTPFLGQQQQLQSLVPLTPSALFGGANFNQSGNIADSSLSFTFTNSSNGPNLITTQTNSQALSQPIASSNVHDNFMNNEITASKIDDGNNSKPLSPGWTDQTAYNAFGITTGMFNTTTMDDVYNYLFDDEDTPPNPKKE
# Sequence of UniProt Q92731 (Q92731 whole entry, looked up, the tested form may be a part): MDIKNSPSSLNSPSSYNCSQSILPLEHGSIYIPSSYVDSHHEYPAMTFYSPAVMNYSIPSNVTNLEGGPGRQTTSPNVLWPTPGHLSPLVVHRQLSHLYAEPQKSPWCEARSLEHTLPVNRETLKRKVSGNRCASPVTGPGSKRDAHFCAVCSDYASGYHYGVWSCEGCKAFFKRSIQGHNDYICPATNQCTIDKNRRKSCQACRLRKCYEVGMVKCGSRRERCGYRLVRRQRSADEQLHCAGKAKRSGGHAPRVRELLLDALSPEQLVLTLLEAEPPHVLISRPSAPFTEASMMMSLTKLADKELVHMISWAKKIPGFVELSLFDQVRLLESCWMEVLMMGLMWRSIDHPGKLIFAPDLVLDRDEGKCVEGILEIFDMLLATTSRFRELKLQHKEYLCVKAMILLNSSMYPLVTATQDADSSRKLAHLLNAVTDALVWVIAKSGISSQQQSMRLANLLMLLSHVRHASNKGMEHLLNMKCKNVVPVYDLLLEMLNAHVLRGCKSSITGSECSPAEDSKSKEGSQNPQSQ
# Sequence of UniProt P10828 (P10828 whole entry, looked up, the tested form may be a part): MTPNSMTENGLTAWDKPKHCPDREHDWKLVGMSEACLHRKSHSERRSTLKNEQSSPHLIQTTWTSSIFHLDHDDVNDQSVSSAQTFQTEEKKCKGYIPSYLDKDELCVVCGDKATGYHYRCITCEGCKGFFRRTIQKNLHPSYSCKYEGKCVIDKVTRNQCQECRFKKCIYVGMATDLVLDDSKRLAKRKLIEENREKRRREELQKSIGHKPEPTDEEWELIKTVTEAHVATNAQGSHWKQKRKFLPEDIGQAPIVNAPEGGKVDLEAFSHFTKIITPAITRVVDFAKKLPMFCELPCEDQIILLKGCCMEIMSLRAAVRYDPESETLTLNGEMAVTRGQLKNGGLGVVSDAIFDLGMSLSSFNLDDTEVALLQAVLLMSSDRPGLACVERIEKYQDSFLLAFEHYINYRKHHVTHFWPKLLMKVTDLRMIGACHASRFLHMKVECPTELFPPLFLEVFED
structure (smiles),measurement,setting,value
CCCCNC(=O)OCC#CI,AC50,[1],inconclusive: 0.086 µM
same,AC50,[2],inconclusive: 15.4 µM
same,outcome,[3],inactive
same,AC50,[4],inconclusive: 11.1 µM
same,AC50,[5],inconclusive: 11.1 µM
same,outcome,[6],inactive
same,outcome,[7],inactive
same,AC50,[8],inconclusive: 2.6 µM
same,outcome,[9],inactive
same,AC50,[10],active: 23.2 µM
same,AC50,[11],inconclusive: 4.04 µM
same,AC50,[12],inconclusive: 2.01 µM
c1cc[c]([Hg][c]2ccccc2)cc1,AC50,AR (gene 367),active: 21.9 µM
C[C@]12CCC(=O)C=C1CC[C@@H]1[C@@H]2CC[C@]2(C)C(=O)CC[C@@H]12,AC50,[2],inconclusive: 0.0258 µM
same,outcome,[2],inactive
same,outcome,[3],inactive
same,AC50,[4],inconclusive: 0.000296 µM
same,AC50,[13],inconclusive: 0.0266 µM
same,AC50,[5],inconclusive: 0.0274 µM
same,AC50,[14],inconclusive: 10 µM and inconclusive: 1.38 nM
same,AC50,[6],inconclusive: 26.2 nM
same,AC50,[7],inconclusive: 10 µM
same,outcome,[7],inactive
same,AC50,[15],inconclusive: 0.0244 µM
same,AC50,[10],inconclusive: 10 µM
same,AC50,[11],inconclusive: 243 nM and inconclusive: 25.8 nM
same,AC50,[12],active: 2.08 µM
same,outcome,[12],inactive
O=C(O)CCCOc1ccc(Cl)cc1Cl,outcome,AR (gene 367),inactive
CC(=O)c1cc2c(cc1C)C(C)(C)C(C)CC2(C)C (stereo not drawn),AC50,[1],inconclusive: 43.3 µM
same,AC50,[2],inconclusive: 163 µM
same,AC50,[4],inconclusive: 150 µM
same,AC50,[13],inconclusive: 152 µM
same,AC50,[5],inconclusive: 25.4 µM
same,AC50,[14],inconclusive: 181 µM
same,AC50,[7],inconclusive: 10.3 µM
same,AC50,[15],inconclusive: 30.9 µM
same,AC50,[8],active: 145 µM
same,AC50,[9],inconclusive: 69.2 µM
same,AC50,[16],inconclusive: 32.9 µM
same,outcome,[11],inactive
same,AC50,[12],inconclusive: 27.5 µM
Cc1[nH]c(=O)n(C(C)(C)C)c(=O)c1Cl,outcome,AR (gene 367),inactive
O=[N+]([O-])c1ccc(Cl)c([N+](=O)[O-])c1,AC50,AR (gene 367),active: 24.8 µM
CO/N=C(/C(=O)OC)c1ccccc1COc1ccccc1C,outcome,AR (gene 367),inactive
C[C@]12CCC(=O)C[C@@H]1CC[C@@H]1[C@@H]2CC[C@]2(C)[C@@H](O)CC[C@@H]12,AC50,[2],inconclusive: 0.243 µM
same,AC50,[3],inconclusive: 1 µM
same,AC50,[17],inconclusive: 1 µM
same,outcome,[4],inactive
same,AC50,[13],inconclusive: 1 µM
same,AC50,[5],inconclusive: 1 µM
same,AC50,[14],inconclusive: 0.00899 µM
same,AC50,[6],inconclusive: 0.0914 nM
same,AC50,[7],inconclusive: 0.00135 µM
same,outcome,[8],inactive
same,outcome,[16],inactive
same,AC50,[11],inconclusive: 1 µM
same,AC50,[12],active: 0.0339 µM
